# From a collection of fitness landscapes (doi:10.1016/j.celrep.2020.107928)
# Whole data set: some 81,000 sequences, median “one-hybrid fitness for binding NBS DNA” near -0.1, cut for the highest 2% near 0.36. This is one part of the list.
# B1: Caulobacter ParB omega fusion; a variant is named by its letters at X, in order, B8GW30 (parent)
# chain: MESVVVGEPGMSEGRRGLGRGLSALLGEVDAAPAQAPGEQLGGSREAPIEILQRNPDQPRRTFREEDLEDLSNSIREKGVLQPILVRPSPDTAGEYQIVAGERAWRAAQRAGLKTVPIMVRELDDLAVLEIGIIENVQRADLNVLEEALSYKVLMEKFERTQENIAQTIGKSXSHVANXMRLLXLPDEVQSYLVSGELTAXHARAIAAAADPVALAKQIIEGGLSVRETEALARKAPNLSAGKSKGGRPPRVKDTDTQALESDLSSVLGLDVSIDHRGSTGTLTITYATLEQLDDLCNRLTRGI
# Variants of: B1
# Test: one-hybrid fitness for binding NBS DNA (the Noc-binding site; scaled: cognate 1, non-cognate 0); higher = stronger binding
# Details: with NBS DNA site
# Summary of the method: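 On M9-minus-histidine containing 0.1 mM IPTG and 5 mM 3-AT, E. coli USO cells with a HIS3 reporter, site 19 bp from the promoter, grew 48 hours at 37°C to select Caulobacter ParB libraries randomised at four specificity codons. Plasmids from before and after were Illumina-sequenced, with three replicate libraries pooled and variants under 10 reads left out. Fitness is the log change in variant-to-wild-type read ratio, rescaled against cognate and non-cognate.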
row,Variant,one-hybrid fitness for binding NBS DNA
1,DQYR,≤ 0.2
2,HDTN,≤ 0.2
3,GFSS,≤ 0.2
4,SHIK,≤ 0.2
5,SGVA,≤ 0.2
6,FVAG,≤ 0.2
7,KTLR,≤ 0.2
8,EARP,≤ 0.2
9,KVAR,≤ 0.2
10,DIHE,≤ 0.2
11,CLMF,≤ 0.2
12,VESW,≤ 0.2
13,TPKN,≤ 0.2
14,FGKR,0.34
15,PADY,≤ 0.2
16,SSVF,≤ 0.2
17,TLCN,≤ 0.2
18,PCLF,≤ 0.2
19,PPCA,≤ 0.2
20,AWPY,≤ 0.2
21,KRMF,≤ 0.2

row,Variant,one-hybrid fitness for binding NBS DNA
1,KDHT,≤ 0.2
2,SHKF,≤ 0.2
3,PQCN,≤ 0.2
4,TMPW,≤ 0.2
5,IMNR,≤ 0.2
6,HDNG,≤ 0.2
7,HNNV,≤ 0.2
8,LSQY,≤ 0.2
9,CLVD,≤ 0.2
10,DSWV,≤ 0.2
11,ALRR,0.207
12,CMTG,≤ 0.2
13,HGTE,≤ 0.2
14,HRQS,≤ 0.2
15,WKRG,≤ 0.2
16,RCVL,≤ 0.2
17,EYLS,≤ 0.2
18,TPGL,≤ 0.2
19,LTKV,≤ 0.2
20,AGRI,≤ 0.2
21,PETT,≤ 0.2

row,Variant,one-hybrid fitness for binding NBS DNA
1,LVKY,≤ 0.2
2,SHFL,≤ 0.2
3,ISTC,≤ 0.2
4,SPRL,≤ 0.2
5,KRRC,0.273
6,EGAD,≤ 0.2
7,RGVV,≤ 0.2
8,FYLR,≤ 0.2
9,QAFT,0.326
10,CYTT,≤ 0.2
11,AYHN,≤ 0.2
12,ASMC,≤ 0.2
13,QLNV,≤ 0.2
14,MQLN,≤ 0.2
15,GVAS,≤ 0.2
16,KKVF,≤ 0.2
17,YPDV,≤ 0.2
18,RDAA,≤ 0.2
19,WIMT,≤ 0.2
20,GHRF,≤ 0.2
21,TDHG,≤ 0.2

row,Variant,one-hybrid fitness for binding NBS DNA
1,APAF,≤ 0.2
2,WGAE,≤ 0.2
3,FWST,≤ 0.2
4,PRAP,≤ 0.2
5,FQAC,≤ 0.2
6,IACG,≤ 0.2
7,TIFV,≤ 0.2
8,DTGI,≤ 0.2
9,NHGC,≤ 0.2
10,CPRC,≤ 0.2
11,DCVS,≤ 0.2
12,QQRF,0.387
13,QCQK,≤ 0.2
14,PSDP,≤ 0.2
15,AMNT,≤ 0.2
16,GPYT,≤ 0.2
17,RQLG,≤ 0.2
18,AIDE,≤ 0.2
19,ACRY,≤ 0.2
20,QSLW,≤ 0.2
21,RDFT,≤ 0.2
